Laboratory results reported in PMC9911399, “Two distinct binding modes provide the RNA-binding protein RbFox with extraordinary sequence specificity”.
Changes are numbered by the printed parent chain; changes in the protein carry UniProt numbers. This is one part of the list.

T1: RBFOX1 RRM RbFoxmut (Fox-RRM*) (Homo sapiens, UniProt Q9NWB1 109-208, R118D;E147R;N151S;E152T)
T1 sequence: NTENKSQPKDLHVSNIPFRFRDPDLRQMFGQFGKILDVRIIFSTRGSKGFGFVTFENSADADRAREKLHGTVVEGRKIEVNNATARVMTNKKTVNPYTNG

B1: GAAACGG (DNA:RNA)
RNA: GGGAGACCGGAAUUCAGAUUGUCCGAAACGGUUAAAUCCCGUCGUAGCCACCA
DNA 1: CAATCTGAATTCCGGTCTCCC
DNA 2: TGGTGGCTACGACGGGATT
B2: GAACUUU (DNA:RNA)
RNA: B1 RNA with A28C, C29U, G30U, G31U
DNA 1: CAATCTGAATTCCGGTCTCCC
DNA 2: TGGTGGCTACGACGGGATT
B3: CCUAUAU (DNA:RNA)
RNA: B1 RNA with G25C, A26C, A27U, C29U, G30A, G31U
DNA 1: CAATCTGAATTCCGGTCTCCC
DNA 2: TGGTGGCTACGACGGGATT
B4: CGUUGAC (DNA:RNA)
RNA: GGGAGACCGGAAUUCAGAUUGUCCCGUUGACUUAAAUCCCGUCGUAGCCACCA
DNA 1: CAATCTGAATTCCGGTCTCCC
DNA 2: TGGTGGCTACGACGGGATT
B5: ACUAUCA (DNA:RNA)
RNA: B4 RNA with C25A, G26C, U28A, G29U, A30C, C31A
DNA 1: CAATCTGAATTCCGGTCTCCC
DNA 2: TGGTGGCTACGACGGGATT
B6: CUUAAGA (DNA:RNA)
RNA: B4 RNA with G26U, U28A, G29A, A30G, C31A
DNA 1: CAATCTGAATTCCGGTCTCCC
DNA 2: TGGTGGCTACGACGGGATT
B7: CUAUCCC (DNA:RNA)
RNA: B4 RNA with G26U, U27A, G29C, A30C
DNA 1: CAATCTGAATTCCGGTCTCCC
DNA 2: TGGTGGCTACGACGGGATT
B8: GAAAGGA (DNA:RNA)
RNA: B1 RNA with C29G, G31A
DNA 1: CAATCTGAATTCCGGTCTCCC
DNA 2: TGGTGGCTACGACGGGATT
B9: CCUUGUG (DNA:RNA)
RNA: B4 RNA with G26C, A30U, C31G
DNA 1: CAATCTGAATTCCGGTCTCCC
DNA 2: TGGTGGCTACGACGGGATT
B10: CUACUGC (DNA:RNA)
RNA: B4 RNA with G26U, U27A, U28C, G29U, A30G
DNA 1: CAATCTGAATTCCGGTCTCCC
DNA 2: TGGTGGCTACGACGGGATT
B11: AUCGGUU (DNA:RNA)
RNA: B4 RNA with C25A, G26U, U27C, U28G, A30U, C31U
DNA 1: CAATCTGAATTCCGGTCTCCC
DNA 2: TGGTGGCTACGACGGGATT
B12: AAAUAUU (DNA:RNA)
RNA: B1 RNA with G25A, A28U, C29A, G30U, G31U
DNA 1: CAATCTGAATTCCGGTCTCCC
DNA 2: TGGTGGCTACGACGGGATT
B13: CAAGAGC (DNA:RNA)
RNA: B1 RNA with G25C, A28G, C29A, G31C
DNA 1: CAATCTGAATTCCGGTCTCCC
DNA 2: TGGTGGCTACGACGGGATT
B14: UACACUU (DNA:RNA)
RNA: B1 RNA with G25U, A27C, G30U, G31U
DNA 1: CAATCTGAATTCCGGTCTCCC
DNA 2: TGGTGGCTACGACGGGATT
B15: CCGAGAA (DNA:RNA)
RNA: B4 RNA with G26C, U27G, U28A, C31A
DNA 1: CAATCTGAATTCCGGTCTCCC
DNA 2: TGGTGGCTACGACGGGATT
B16: UGGUGCC (DNA:RNA)
RNA: B4 RNA with C25U, U27G, A30C
DNA 1: CAATCTGAATTCCGGTCTCCC
DNA 2: TGGTGGCTACGACGGGATT
B17: AGGCAGU (DNA:RNA)
RNA: B4 RNA with C25A, U27G, U28C, G29A, A30G, C31U
DNA 1: CAATCTGAATTCCGGTCTCCC
DNA 2: TGGTGGCTACGACGGGATT
B18: GCACCCA (DNA:RNA)
RNA: B1 RNA with A26C, A28C, G30C, G31A
DNA 1: CAATCTGAATTCCGGTCTCCC
DNA 2: TGGTGGCTACGACGGGATT
B19: UAUUCGU (DNA:RNA)
RNA: B1 RNA with G25U, A27U, A28U, G31U
DNA 1: CAATCTGAATTCCGGTCTCCC
DNA 2: TGGTGGCTACGACGGGATT
B20: UCAAAUC (DNA:RNA)
RNA: B1 RNA with G25U, A26C, C29A, G30U, G31C
DNA 1: CAATCTGAATTCCGGTCTCCC
DNA 2: TGGTGGCTACGACGGGATT

Each binder was assayed against T1, RBFOX1 RRM RbFoxmut (Fox-RRM*) (assay: EMSA; HiTS-Eq, 1 nM pool, 10 min; buffer printed only for the single-RNA assays: 10 mM Tris pH 7.5, 150 mM NaCl, 3.4 mM EDTA, 0.001% NP-40, 30 C). Details: tags: His6 N-terminal (pET28a); label: 5' 32P.
Procedure, shortened: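 A pool of RNA with 7 randomized nucleotides, 5′-radiolabelled and with DNA-annealed flanks, was equilibrated at 1 nM for 10 min in 50 µL with purified RbFox RRM, wild type or mutant, across increasing protein concentrations. Free RNA was separated by 8% native PAGE, excised, reverse-transcribed, barcoded by PCR and sequenced. Relative association constants were obtained from read-count changes of each RNA species versus the control reaction and normalised to the cognate motif.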

Binder | binding signal
B1 | 0.0484 KA relative to UGCAUGU
B2 | 0.0595 KA relative to UGCAUGU
B3 | 0.104 KA relative to UGCAUGU
B4 | 0.125 KA relative to UGCAUGU
B5 | 0.0809 KA relative to UGCAUGU
B6 | 0.097 KA relative to UGCAUGU
B7 | 0.0664 KA relative to UGCAUGU
B8 | 0.045 KA relative to UGCAUGU
B9 | 0.155 KA relative to UGCAUGU
B10 | 0.104 KA relative to UGCAUGU
B11 | 0.105 KA relative to UGCAUGU
B12 | 0.102 KA relative to UGCAUGU
B13 | 0.0966 KA relative to UGCAUGU
B14 | 0.0821 KA relative to UGCAUGU
B15 | 0.138 KA relative to UGCAUGU
B16 | 0.257 KA relative to UGCAUGU
B17 | 0.0641 KA relative to UGCAUGU
B18 | 0.0828 KA relative to UGCAUGU
B19 | 0.1 KA relative to UGCAUGU
B20 | 0.063 KA relative to UGCAUGU
